# The campaign covered roughly 410,000 compounds. About 530 (0.13%) were called active. Inconclusive results, whose numbers are uncertain, are shown with a selection of clear calls. The call rests on the fitted dose curve; in most records, active means well fitted inhibition curve with a large enough effect; inconclusive means small, poorly fitted or top-dose-only effect, or another doubt; inactive means no such curve, though single readings can be large or run the other way. A potency beside an inconclusive call is a rough fit, not a confirmed value.
# Test: qHTS of GLP-1 Receptor Inverse Agonists: Cytotox Screen
# Details: HEK293 cAMP-luciferase reporter cells, luminescence, 24 h; activity change, negative = inhibition: at 38.3 µM (top of the series) unless noted
# Method in brief: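 Cells in DMEM/10% Nu serum/1% pen-strep, 1536-well format. Pre-incubated 12 h, dosed with 23 nL compound, incubated a further 24 h. Luciferase detection, 12 min at room temp, luminescence.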
# On the % scale 0 is the no-effect control and ±100 the full control effect; potency means the concentration at half of the fitted maximal effect.
SMILES,Potency,"activity change, negative = inhibition"
CCOCCCNCc1ccc(OCc2ccccc2Cl)cc1,"inconclusive: 14.1 µM [inhibitor, partial curve, poor fit]",
COc1ccc(NS(=O)(=O)c2ccc3nc(COc4ccc5ccccc5c4)[nH]c3c2)cc1,"inconclusive: 12.6 µM [inhibitor, single point]",
CCOC(=O)c1ccccc1NC(=O)CSc1ccc(-c2sc(-c3ccccc3)nc2C)nn1,,inactive: 8.21%
CCOc1ccc(OCC)c(NC(=O)CN2CCN(C(=O)c3ccco3)CC2)c1,"inconclusive: 14.1 µM [inhibitor, single point]",
COc1cc(OC)c2ccc(=O)oc2c1C(CCN1CCCC(C)C1)c1ccc2c(c1)OCO2 (stereo not drawn),"inconclusive: 6.31 µM [inhibitor, partial curve, poor fit]",
Cc1ccc2c(c1)c(C)c(C)n2CC(O)CN1CCCCC1C (stereo not drawn),"inconclusive: 12.6 µM [inhibitor, single point]",
N/C(Cc1ccc(Cl)cc1)=N\OC(=O)c1ccc2ccccc2c1,"inconclusive: 5.62 µM [inhibitor, partial curve]",
c1ccc(CNc2nc(NCc3ccccc3)c3ccccc3n2)cc1,"inconclusive: 31.6 µM [inhibitor, single point]",
CCOC(=O)c1c(N)sc(C(=O)Nc2ccc3c(c2)OCO3)c1C,"inconclusive: 17.8 µM [inhibitor, partial curve, poor fit]",
O=C(NC(=S)Nc1cc(Cl)ccc1N1CCOCC1)c1ccccc1[N+](=O)[O-],"inconclusive: 28.2 µM [inhibitor, single point]",
Cc1cccc(NC2=C(Cl)C(=O)OC2OC(C)C)c1 (stereo not drawn),,inactive: -2.11%
CCN(CC(=O)Nc1cccc(OC)c1)CC(=O)Nc1ccc(Br)c(C)c1,"inconclusive: 14.1 µM [inhibitor, single point]",
O=C1CC(=C(c2ccccc2)c2ccccc2)C(=O)N1CCCCN1CCN(c2ccccc2)CC1,"inconclusive: 28.2 µM [inhibitor, single point]",
C=CCNc1nc(-c2ccccn2)nnc1-c1ccccc1,"inconclusive: 12.6 µM [inhibitor, partial curve, poor fit]",
CCn1cc(CN2CCC(C(=O)Nc3cccc(-c4cccc(Cl)c4)c3)CC2)c(C)n1,"inconclusive: 28.2 µM [inhibitor, single point]",
COc1ccc(CCCNC(=O)C2Cc3c(-c4ccc5c(c4)OCO5)ccnc3O2)cc1 (stereo not drawn),"inconclusive: 6.31 µM [inhibitor, partial curve]",
COc1ccc(/C=C/C2=CC(C)(C)NC(=S)N2)c(OC)c1,"inconclusive: 28.2 µM [inhibitor, single point]",
O=c1c2ccccc2n(Cc2cccc(Cl)c2)c(=O)n1CCc1ccccc1,,inactive: 5.36%
COc1cccc(/C=N/Nc2nc(Nc3ccc([N+](=O)[O-])cc3)nc(N3CCCC3)n2)c1O,"inconclusive: 3.16 µM [inhibitor, partial curve, poor fit]",
CCN(CC(=O)NCc1ccc(Cl)cc1)CC(=O)NC1(C#N)CCCC1,"inconclusive: 5.62 µM [inhibitor, partial curve, poor fit]",
O=C1c2ccccc2C(=O)c2c1ccc(O)c2O,"inconclusive: 28.2 µM [inhibitor, single point]",
COc1cccc(CN2CCN(C(=O)c3cc(-c4ccncc4)nc4ccc(C)cc34)CC2)c1,"inconclusive: 10 µM [inhibitor, single point]",
Cc1ccc(NC(=S)N/C(=N/S(=O)(=O)c2ccccc2)c2ccccc2)cc1,"inconclusive: 22.4 µM [inhibitor, single point]",

SMILES,Potency,"activity change, negative = inhibition"
COc1ccc(CSC(=N)N)cc1[N+](=O)[O-],"inconclusive: 10 µM [inhibitor, single point]",
COc1ccc(C(CNC(=O)c2ccc(-c3ccccc3Cl)o2)N2CCCC2)cc1 (stereo not drawn),"inconclusive: 28.2 µM [inhibitor, single point]",
C=C1[C@@H](O)[C@H](CC(C)C)N(Cc2ccccc2Br)S1(=O)=O,"inconclusive: 6.31 µM [inhibitor, partial curve, poor fit]",
CCCOc1ccc(N2C(=O)CC(N3CCN(c4ccc([N+](=O)[O-])cc4)CC3)C2=O)cc1 (stereo not drawn),,inactive: -18.3%
C/C(=N\Nc1nc2ccccc2s1)c1ccc(Br)s1,"inconclusive: 28.2 µM [inhibitor, single point]",
CN(C)CCCN(C(=O)c1ccco1)c1nc(-c2ccc(Cl)cc2)cs1,"inconclusive: 28.2 µM [inhibitor, single point]",
CCC(c1nnnn1CCc1ccccc1)N(Cc1ccco1)Cc1cc2cc(C)cc(C)c2[nH]c1=O (stereo not drawn),,inactive: -13.4%
Cn1c(=O)c2sccc2n(Cc2ccccc2)c1=O,,inactive: -3.45%
CN1CCN(C2=C(NS(=O)(=O)c3cccs3)C(=O)c3ccccc3C2=O)CC1,"inconclusive: 28.2 µM [inhibitor, single point]",
COc1cc(/C=N/Nc2ncc(C(F)(F)F)cc2Cl)cc(OC)c1O,"inconclusive: 12.6 µM [inhibitor, single point]",
CCOc1ccc(S(=O)(=O)N2CCCC(C(=O)NCc3ccco3)C2)cc1 (stereo not drawn),"inconclusive: 22.4 µM [inhibitor, single point]",
CC(=O)N1CCN(c2ccc(NC(=O)c3ccc([N+](=O)[O-])o3)cc2Cl)CC1,"inconclusive: 12.6 µM [inhibitor, partial curve, poor fit]",
C/C(=N\Nc1cc(N2CCOCC2)ncn1)c1ccccc1,,inactive: 28.5%
CCCCN(C)CCNC(=O)C1CCN(c2nc3ccc(CC)cc3s2)CC1,,inactive: -18.4%
COc1ccc(C(=O)NCCN2CCC(n3c(=O)[nH]c4ccccc43)CC2)cc1F,,inactive: -0.0704%
O=C(CCC(=O)N1Cc2ccccc2Oc2ncccc21)NCc1ccccc1Cl,,inactive: 0.409%
CCCn1c2c(c(=N)c3c1CCC3)CCC2,,inactive: -12%
O=c1[nH]c(/C=C\c2ccc(O)cc2)nc(O)c1[N+](=O)[O-],"inconclusive: 6.31 µM [inhibitor, partial curve, poor fit]",
COc1ccc(C(c2c(O)cc(C)n(Cc3ccco3)c2=O)N2CCN(c3ccccc3)CC2)cc1 (stereo not drawn),,inactive: -6.88%
CCCN1CNC(=S)N(CCc2ccccc2)C1,"inconclusive: 20 µM [inhibitor, single point]",
CN1CCN(CCCN2c3ccccc3Sc3ccc(Cl)cc32)CC1,"inconclusive: 31.6 µM [inhibitor, partial curve, poor fit]",
S=C(Nc1ccc(Cl)cc1Cl)NC1CCCCC1,"inconclusive: 22.4 µM [inhibitor, single point]",
Cc1ccc(C)c(S(=O)(=O)Nc2ccc(C(=O)NCC(c3ccco3)N3CCCCC3)cc2)c1 (stereo not drawn),"inconclusive: 11.2 µM [inhibitor, partial curve, poor fit]",

SMILES,Potency,"activity change, negative = inhibition"
O=C(N/N=C/c1ccc(F)cc1)c1cccc(NC(=O)c2ccc(F)cc2)c1,"inconclusive: 10 µM [inhibitor, single point]",
O=S(=O)(NCc1ccccc1)c1ccccc1NCCc1ccccc1,,inactive: 2.13%
CCN(CC)c1ccc(C2Nc3cccc4cccc(c34)N2)cc1,,inactive: -18.7%
Cc1cc(C(=O)CCl)c(C)n1-c1cccc([N+](=O)[O-])c1,"inconclusive: 14.1 µM [inhibitor, single point]",
Cc1cc2ccccn2c1C(=O)c1ccc([N+](=O)[O-])o1,,inactive: 6.33% [at 0.307 µM]
COc1cccc(-c2nn(C)c3sc(C(=O)NCCCN(C)Cc4ccccc4)cc23)c1,"inconclusive: 28.2 µM [inhibitor, single point]",
COc1ccc(-c2csc(NC(=O)CCn3cnc4ccccc4c3=O)n2)cc1OC,"inconclusive: 28.2 µM [inhibitor, single point]",
O=C1NC(=O)/C(=C/c2ccc(O)cc2)S1,"inconclusive: 11.2 µM [inhibitor, single point]",
Cc1cc(C)cc(-n2ncc3c2CCCC3NC(=O)c2cc(C)oc2C)c1 (stereo not drawn),,inactive: -8.32%
CC(C)(C)c1nnc(NC(=O)NS(=O)(=O)c2ccccc2)s1,,inactive: -5.32%
COc1ccc(NS(=O)(=O)c2ccc(O)c(NC(=O)c3ccc(S(=O)(=O)N4CCCCCC4)cc3)c2)cc1,,inactive: -8.8%
CCn1c2ccccc2c2cc(NC(=O)C(=O)N3CCOCC3)ccc21,"inconclusive: 12.6 µM [inhibitor, single point]",
CCOc1ccc2[nH]c3c(NCCC(C)C)ncnc3c2c1,,inactive: -24%
Cc1ccc(C(C)C)c(OCc2n[nH]c(=S)o2)c1,"inconclusive: 28.2 µM [inhibitor, single point]",
S=C(Nc1ccccc1)Nc1ccc(Br)cn1,active: 3.55 µM,
Cc1ccc(NC(=O)OC(C)CNC(=O)Oc2cccc(C)c2)cc1 (stereo not drawn),,inactive: -16.3%
CN(C)c1ccc(C(=O)Nc2nnc(C3=COCCO3)o2)cc1,"inconclusive: 11.2 µM [inhibitor, single point]",
COc1nc2ccccc2c(=O)n1OCC(C)C,"inconclusive: 2.51 µM [inhibitor, full curve, poor fit]",
CCCN1CCN(C(=O)CCn2c(=O)c3cccn3c3cccnc32)CC1,"inconclusive: 28.2 µM [inhibitor, single point]",
S=C(NCc1ccccn1)Nc1ccc(Cl)c(Cl)c1,"inconclusive: 28.2 µM [inhibitor, single point]",
Cc1cc(C)c(CN2CCN(CCCn3cnc(C(=O)Nc4ccc(C)c(C)c4)n3)CC2)c(C)c1,"inconclusive: 11.2 µM [inhibitor, single point]",
CCCCNC(=S)Nc1ccc2nc(N3CCN(CC)CC3)cc(C)c2c1,"inconclusive: 12.6 µM [inhibitor, single point]",

# Reference: PubChem BioAssay AID624418 (National Center for Advancing Translational Sciences (NCATS), 2012)
